{"source": "paper PMC4490944", "about": "(Journal of immunology (Baltimore, Md. : 1950), 2015)", "target": "Soluble extracellular domains of recombinant HLA-DR1 (DRA*0101/DRB1*010101), non peptide-loaded (human)", "assay": "fluorescence polarisation", "note": "No end group written: not given here. Alexa 488 = Alexa-488 fluorophore (from tetrafluorophenyl ester) on the Lys side-chain amine"}
{"binder": "Ac-VSK(Alexa 488)MRMATPLLMQ", "note": "[Alexa488-labeled CLIP peptide (Ac-…)]", "values": [{"measurement": "k2 (peptide binds active DR1 to give the transient complex MHCpep')", "result": 0.054, "unit": "µM⁻¹ min⁻¹"}, {"measurement": "k-2 (peptide leaves the transient complex MHCpep')", "result": 0.029, "unit": "min⁻¹"}]}
